Test results taken from PMC13010994 (Nature structural & molecular biology, 2025).

Target: T1, purified hemagglutinin (HA)-tagged PURB (human (cDNA amplified from H1299 cells), UniProt Q96QR8 1-312)
T1 sequence (looked up): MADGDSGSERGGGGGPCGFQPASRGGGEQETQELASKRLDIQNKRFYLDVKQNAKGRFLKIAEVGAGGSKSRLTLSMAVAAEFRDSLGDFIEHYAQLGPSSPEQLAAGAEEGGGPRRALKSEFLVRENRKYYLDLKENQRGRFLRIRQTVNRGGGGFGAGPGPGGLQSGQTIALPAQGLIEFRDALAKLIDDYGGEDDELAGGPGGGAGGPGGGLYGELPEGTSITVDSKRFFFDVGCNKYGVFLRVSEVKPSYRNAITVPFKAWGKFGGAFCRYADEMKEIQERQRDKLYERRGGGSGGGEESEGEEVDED
Assay: pull-down

B1: GST–p53 ([…]) (domain or fragment)
chain: not shown
B1: binds.
